Experimental data published in the antibiotic and cytotoxicity screens of Wong et al. (2023).
This is one part of the list.

Tests used:
HSkMC = human skeletal muscle cells; assay: cytotoxicity call (relative viability < 0.9); details: 10 µM
HepG2 = assay: cytotoxicity call (relative viability < 0.9); details: 10 µM
S. aureus RN4220 = assay: growth inhibition call (relative growth <= 0.2); details: 50 µM

CCCNC(=O)N1C[C@H](C)[C@H](OC)CN(C)C(=O)c2cc(NS(=O)(=O)CC(F)(F)F)ccc2OC[C@H]1C
inactive: cytotoxicity call (HSkMC) | cytotoxicity call (HepG2) | growth inhibition call (S. aureus RN4220)

C[C@@H]1CCCCO[C@H](CN(C)C(=O)C2CCCCC2)[C@H](C)CN([C@@H](C)CO)C(=O)c2cc(NC(=O)CCCCCC(=O)Nc3ccccc3N)ccc2O1
inactive: cytotoxicity call (HSkMC) | cytotoxicity call (HepG2) | growth inhibition call (S. aureus RN4220)

O=C(C[C@H]1CC[C@@H]2[C@H](COC[C@@H](O)CN2C(=O)c2ccccc2)O1)NCCCN1CCOCC1
inactive: cytotoxicity call (HSkMC) | cytotoxicity call (HepG2) | growth inhibition call (S. aureus RN4220)

COc1ccc(NC(=O)N(C)C[C@H]2OCCCC[C@H](C)Oc3ccc(NC(=O)c4ccccc4)cc3C(=O)N([C@@H](C)CO)C[C@@H]2C)cc1
inactive: cytotoxicity call (HSkMC) | cytotoxicity call (HepG2) | growth inhibition call (S. aureus RN4220)

C[C@H](CO)N1C[C@H](C)[C@@H](CN(C)S(=O)(=O)c2cn(C)cn2)OCCCC[C@H](C)Oc2ccc(NS(=O)(=O)c3cn(C)cn3)cc2C1=O
inactive: cytotoxicity call (HSkMC) | cytotoxicity call (HepG2) | growth inhibition call (S. aureus RN4220)

C[C@@H]1CCCCO[C@@H](CN(C)S(=O)(=O)c2ccccc2)[C@@H](C)CN([C@@H](C)CO)C(=O)c2cc(NC(=O)C3CCCCC3)ccc2O1
inactive: cytotoxicity call (HSkMC) | cytotoxicity call (HepG2) | growth inhibition call (S. aureus RN4220)

C[C@H](CO)N1C[C@H](C)[C@H](CN(C)S(=O)(=O)c2ccc(Cl)cc2)Oc2ccc(NC(=O)CCN3CCOCC3)cc2CC1=O
inactive: cytotoxicity call (HSkMC) | cytotoxicity call (HepG2) | growth inhibition call (S. aureus RN4220)

C[C@@H]1CN([C@H](C)CO)C(=O)c2cc(-c3ccc(C(=O)N(C)C)cc3)cnc2O[C@H]1CN(C)C(=O)CN(C)C
inactive: cytotoxicity call (HSkMC) | cytotoxicity call (HepG2) | growth inhibition call (S. aureus RN4220)

CNC(=O)Cn1c(=O)c2c(N3CCN(C(=O)C4CC4)CC3)ccnc2n(C)c1=O
inactive: cytotoxicity call (HSkMC) | cytotoxicity call (HepG2) | growth inhibition call (S. aureus RN4220)
